B1: chr17:57106211:57106324:+|CDS|ENSG00000121057|unk|FALSE|unique (ssRNA)
RNA: GGGAGUUCUACAGUCCGACGAUCUCAUCCCAGGUGGUGGGGCCAGUGCAGGAGGAAGAGUAUGUAGCAGAGAAGUUGCCAAGUAGGUUCAUCGAGUCGGCUCACACAGAGCUGGCAAAGGACGAUGCGGCGCCAGCACCCCCACAACAGAGGAUUGAGCAUCA
B2: chr11:26667019:26671251:-|three_prime_utr|ENSG00000148942|control|control|control (ssRNA)
RNA: GGGAGUUCUACAGUCCGACGAUCACACACACGUGCAAUACACACACACACACACAAACUCCACAUACUUCUUGCCUACUUGUUAGUAGAUAUGUAUAGUUGCCAUUGCUAGAAGACAGGGAUGUCUGGUGCCUAUUUCUACUUCAACAGAGGAUUGAGCAUCA
B3: ENSG00000107863:be:win_1351|CDS|ENSG00000107863|bound_else_gene|NA|bound_elsewhere_windowed (ssRNA)
RNA: GGGAGUUCUACAGUCCGACGAUCGUCCAGAUACGGCAACGCAGUGUGUCCCAAGAAAGACUGGAAGAUUCUGUGCUAAUGAAGUAUUGUCCAAGAAGUGCAUCUCAAGGAGCACUGACGUCUCCAUCUGUUAGUUUUAGUAAUCAACAGAGGAUUGAGCAUCA
B4: chr11:47420279:47420382:-|CDS|ENSG00000165916|unk|total|mutant (ssRNA)
RNA: GGGAGUUCUACAGUCCGACGAUCAAACAGGGUGGACAUCCUGGACCCCGCCCUCCUCCGCUCGGGCCGCCUUGACCGCAAGACCGAGUUCCCGAUGCCCAAUGAGGAGGCCCGGGCCAGAAUCAUGCAGAUCCACUCCCGAAACAACAGAGGAUUGAGCAUCA
B5: chr8:80637648:80637749:-|3pUTR|ENSG00000164684|unk|FALSE|unique (ssRNA)
RNA: GGGAGUUCUACAGUCCGACGAUCUGCGCUUAGCUGCAAAGUGCCUGUCAGCAGCUCCAGGCACCAACAAGGUGCCCUUUUAUUAGACAAUUCCUGCCCGAACAUAACCAUAUUGCAGAUGAAAAUUUUCAAUAGAGAAUGACACAACAGAGGAUUGAGCAUCA
B6: chr5:6669452:6669553:+|3pUTR|ENSG00000145545|unk|total|mutant (ssRNA)
RNA: GGGAGUUCUACAGUCCGACGAUCCAUCUCAUCUGGAGUUUUUAAAUGCCAUUUGUUUCAGUUGUCUUUAACAACAUAAUAAACCGACUUUGCCAUUUAACAAGGCCGCUCAAAUUCUUUUACUAAUUGUUACAUCGAAACAUUCAACAGAGGAUUGAGCAUCA
B7: chr1:17283265:17283432:+|3pUTR|ENSG00000142619|msi1|FALSE|unique (ssRNA)
RNA: GGGAGUUCUACAGUCCGACGAUCCAUGUGGUUCUCAGACUUGAAUCUUCUCGGCCCCCCAAAAAGAAGGACCUCAUUUCUUAUAGCCUCUCCUGUGAUUCAACACAACCCAUGGAGAUGUCCCCUUCUCACUCUGAAAUCAUCCAACAGAGGAUUGAGCAUCA
B8: chr4:76435395:76435496:+|5pUTR|ENSG00000138771|msi1|FALSE|unique (ssRNA)
RNA: GGGAGUUCUACAGUCCGACGAUCUUUUCUCUCCUAAGAAACAAACUAUGAACUGAUUGUUGAAAAAAAGAAGUAAAAAGUUUUAGCACAGCUUCUCUGUCUCUUCGGGACAAGUUAGAAAAUUCUGAAGUGAGCCGAAGCAUACAACAGAGGAUUGAGCAUCA
B9: chr12:56205560:56205676:-|3pUTR|ENSG00000181852|unk|FALSE|unique (ssRNA)
RNA: GGGAGUUCUACAGUCCGACGAUCCUCUUGUGGCACAGGCCAUAAUUGUUCCAUAGACCCCUCUCUAGCCCUGUGACUGUAGUUAGUUACUUUGAUAAUUUUCUUUGGCCAUUGUUUGUUUAUAUUUCACAAACUCCACCUACUCAACAGAGGAUUGAGCAUCA
B10: chr17:2060671:2060772:-|3pUTR|ENSG00000070366|unk|FALSE|unique (ssRNA)
RNA: GGGAGUUCUACAGUCCGACGAUCCCGUGCUCUCGGGUGGCCUCCACCUGCUCCCUCUCUCCUCACUGGCCUUUCUUUCCGUCUAGCUUCCUCUUCAGGAAAUGUCCUGACUCCCCUCAGCUCCCCCUUCACCCCUCCUUGCCCCAACAGAGGAUUGAGCAUCA
B11: chr1:248294618:248295578:-|CDS|ENSG00000177201|control|control|control (ssRNA)
RNA: GGGAGUUCUACAGUCCGACGAUCUGGCUGUGGUGUGCAGAUCUUCUUCCUCCCCACACUGGGUGGUGGAGAGUGCUUCCUCUUAGCAGCCAUGGCCUAUGACCGCUAUGCGGCUGUCUGCCACCCACUCCGAUAUCCCACUCUCAACAGAGGAUUGAGCAUCA
B12: chrX:130625084:130625185:-|3pUTR|ENSG00000165675|msi1|FALSE|unique (ssRNA)
RNA: GGGAGUUCUACAGUCCGACGAUCAGUUCCUUUGAAUUUGUCAGUUCAUUCCUGGAAAAUCUUUUGAGUUAAAAUAAGGAUCCUAGGACAGCACCUCGAACUACAGGCCCUAAAGAGAAAUUGCCUCAAACCACAAGUGCUGUACAACAGAGGAUUGAGCAUCA
B13: chr11:61799969:61800070:-|3pUTR|ENSG00000149485|msi1|FALSE|unique (ssRNA)
RNA: GGGAGUUCUACAGUCCGACGAUCUUCUUUGCCACCUUUUGGGUGUGGUGUCACCAGCCUGUUUAGCCAAGUAGCUUUGGGCAUAGGCUGCCCAAUCUGAGCAAACACCAGUGAGGCUCUAUUGAGCCAAGACCAAGUCCUCAACAACAGAGGAUUGAGCAUCA
B14: chr16:74449243:74449344:-|3pUTR|ENSG00000090863|msi1|total|mutant (ssRNA)
RNA: GGGAGUUCUACAGUCCGACGAUCUCUCCUAUCCUCCCAUCCUCCAGGCCUGUGGUGUGACUUCUGCCCCGAAGUUCCUACUACCGUGAGUCAUCUGGGGAGAGGCCACUGAAAAGAGGCCUUCCCUUCCCAUUUCCUCCCCUGCAACAGAGGAUUGAGCAUCA
B15: ENSG00000107863:be:win_5501|CDS|ENSG00000107863|bound_else_gene|NA|bound_elsewhere_windowed (ssRNA)
RNA: GGGAGUUCUACAGUCCGACGAUCCUGUAAACCGGUUAAAACCAAAAUGCUCAGCCCAGGACCUUUCCAUCUCAGACUGGCUGGCCAGGGAACGCCUACGCACCAGUACCUCUGACCUUAGCAGAGGAGAAAUCGGAGAUCCCCCAACAGAGGAUUGAGCAUCA
B16: ENSG00000106682:stop:overlap|stop_codon|ENSG00000106682|stop_codon|NA|stop_codon (ssRNA)
RNA: GGGAGUUCUACAGUCCGACGAUCCUUCCCCUGGAAGGUUCAGGAGAGUAUUUGUCGCCUGGUUGCUUUUACAUCAUGCUGAUUAGACCUGCACACCCGGGCAUGAAAUGAGUGUGAUUGCAUCAUUUUCAUAGAACCUAAUGGCAACAGAGGAUUGAGCAUCA
B17: chr11:20156216:20156573:-|CDS|ENSG00000109851|control|control|control (ssRNA)
RNA: GGGAGUUCUACAGUCCGACGAUCAUCUGGUUCCAGAACCGACGCAUGAAAUGGCGGAACUCCAAGGAGCGCGAACUCCUGUCUAGCGGGGGCUGUCGCGAGCAGACCCUGCCCACCAAGCUCAAUCCGCACCCGGACCUCAGCCAACAGAGGAUUGAGCAUCA
B18: chr15:58589816:58589917:-|3pUTR|ENSG00000137845|unk|FALSE|unique (ssRNA)
RNA: GGGAGUUCUACAGUCCGACGAUCAUUCAUUUGCUGAAGAGCUGGCUUGUACUUUGGCAGGUGUCAUACUUGGUUAUUCUCCUUAGGAUAUUGGCCCAACAAUCUGGGAGUUGUGAAAGGCGCUUCGCUUUUCAGACCUGGGCGCAACAGAGGAUUGAGCAUCA
B19: ENSG00000124766:be:win_1651|3pUTR|ENSG00000124766|bound_else_gene|NA|bound_elsewhere_windowed (ssRNA)
RNA: GGGAGUUCUACAGUCCGACGAUCUCUGCCCAGCCGGAGGGACGCGGAGGAGGAAGAGGGUAGACAGGGGCGACCUGUGAUUGUUGUUAUUGAUGUUGUUGUUGAUGGCAAAAAAAAAAAAGCGACUUCGAGUUUGCUCCCCUUCAACAGAGGAUUGAGCAUCA
B20: chr2:210612109:210612263:+|CDS|ENSG00000021826|unk|total|mutant (ssRNA)
RNA: GGGAGUUCUACAGUCCGACGAUCUAUUGGUCGUACCUUUGAGGAGAGUUUCCAGAAAGCUUUACGGAUGUGCCACCCAUCUACCGAAGGUUUCACUCCCCGUCUCCCAAUGAACAAAGAAUGGCCAUCUAAUUCCGAUCUCCGCAACAGAGGAUUGAGCAUCA
B21: ENSG00000198589:be:win_7051|CDS|ENSG00000198589|bound_else_gene|NA|bound_elsewhere_windowed (ssRNA)
RNA: GGGAGUUCUACAGUCCGACGAUCCCUGAAUUUUAUUAUCUCCCUGAGAUGUUUGUCAACUUCAAUAAUUAUAAUCUUGGAGUGAUGGAUGAUGGGACAGUAGUGUCUGAUGUCGAACUUCCUCCUUGGGCCAAAACCUCAGAACAACAGAGGAUUGAGCAUCA
B22: chr5:83943476:83943577:-|CDS|ENSG00000164176|msi1|total|mutant (ssRNA)
RNA: GGGAGUUCUACAGUCCGACGAUCAUAAAAAUAAUUUCAAAGAAAGAAGGCUGUGUGACUGACAUUUUUCUGCUCUUCUUUAUCCGGUUUUCCAGGGAAAUUUUGACAAUGACACUCACAGAAAAAAUGUCAUCGACCCUCCCACAACAGAGGAUUGAGCAUCA

The text below walks through data of publication PMC12136788.

The list shows a part of the results.

For the assay, the target named is MSI1 full-length (mouse, UniProt Q61474 1-362). As to the kind of experiment: nsRBNS (natural sequence RNA bind-n-seq); RBNS binding buffer (assumed for nsRBNS): 25 mM Tris pH 7.5, 150 mM KCl, 3 mM MgCl2, 0.01% Triton X-100, 500 ug/ml BSA, 20 U/ml SUPERase-In, 4 C; UNK is unkempt and MSI1 is Musashi-1; names of the RNAs are library labels; protein concentration not given here; high values mean tight binding.
Sequence of UniProt Q61474 (Q61474 whole entry): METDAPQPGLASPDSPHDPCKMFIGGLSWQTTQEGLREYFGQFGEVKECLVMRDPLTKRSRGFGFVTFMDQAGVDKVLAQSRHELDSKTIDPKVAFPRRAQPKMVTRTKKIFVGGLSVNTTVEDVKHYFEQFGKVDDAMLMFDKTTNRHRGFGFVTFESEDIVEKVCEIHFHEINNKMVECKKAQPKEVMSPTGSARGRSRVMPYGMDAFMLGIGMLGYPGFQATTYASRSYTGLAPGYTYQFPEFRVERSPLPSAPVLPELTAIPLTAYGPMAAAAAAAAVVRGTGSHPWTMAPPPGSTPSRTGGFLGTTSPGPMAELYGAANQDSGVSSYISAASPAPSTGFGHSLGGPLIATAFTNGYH
In turn, B1 yielded a binding signal of 4.47 enrichment R.
In turn, B2 yielded a binding signal of 4.7 enrichment R.
B3 came in with a binding signal of 4.82 enrichment R.
B4 displayed a binding signal of 0.42 enrichment R.
The same measure for B5: 1 enrichment R; for B6: 0.413 enrichment R.
In turn, B7 registered a binding signal of 0.371 enrichment R.
In turn, B8 registered a binding signal of 2.25 enrichment R.
B9: the binding signal was found to be 11.2 enrichment R.
For the molecule B10, the binding signal is 0.815 enrichment R.
The molecule B11 yielded a binding signal of 0.421 enrichment R.
Molecule B12 returned a binding signal of 0.482 enrichment R.
B13 came in with a binding signal of 0.723 enrichment R.
As for B14, the binding signal was 0.452 enrichment R.
For the molecule B15, the binding signal came out at 0.497 enrichment R.
The same measure for B16: 0.516 enrichment R.
Molecule B17 yielded a binding signal of 0.3 enrichment R.
As for B18, the binding signal came out at 0.378 enrichment R.
For the molecule B19, the binding signal came to 0.401 enrichment R.
B20 gave a binding signal of 0.365 enrichment R.
In the case of B21, the binding signal is 0.286 enrichment R.
As to B22, the binding signal turned out to be 0.352 enrichment R.
